In publication PMC10293653 (International Journal of Biological Macromolecules, 2023):

Experiments:
[1] = tested on: cells infected with Wt-SARS-CoV-2
[2] = tested on: DPP4; conditions: virus infected cells

Structure (SMILES) | viable virus infected cells after treatment [1] | cellular DPP4 enzymatic activity in infected cells [2]
CC#CCn1c(N2CCC[C@@H](N)C2)nc2c1c(=O)n(Cc1nc(C)c3ccccc3n1)c(=O)n2C [Linagliptin, linagliptin] | Around 90% | 
N[C@@H](CC(=O)N1CCn2c(nnc2C(F)(F)F)C1)Cc1cc(F)c(F)cc1F [Sitagliptin, sitagliptin] | Around 90% | 
CCC(CC)COC(=O)[C@H](C)N[P@](=O)(OC[C@H]1O[C@@](C#N)(c2ccc3c(N)ncnn23)[C@H](O)[C@@H]1O)Oc1ccccc1 [Remdesivir, remdesivir] |  | did not affect the DPP4 activity
